Reference: PubChem BioAssay AID504339 (National Center for Advancing Translational Sciences (NCATS), 2011)
The campaign covered roughly 390,000 compounds. About 17,000 (4.4%) were called active. Inconclusive results, whose numbers are uncertain, are shown with a selection of clear calls. Calls follow the shape of the dose curve; as a rule, active = well fitted inhibition curve with a large enough effect; inconclusive = small, poorly fitted or top-dose-only effect; inactive = no such curve, though single readings can be large or run the other way. A potency beside an inconclusive call is a rough fit, not a confirmed value.

target: Lysine-specific demethylase 4A (Homo sapiens) (UniProt O75164); assay: qHTS Assay for Inhibitors of JMJD2A-Tudor Domain; conditions: AlphaScreen JMJD2A-Tudor / H3K4me3 peptide binding; series mostly up to 114 µM; also: nearly all actives have a fitted effect of over 50% in size
Chain of UniProt O75164 (O75164 whole entry, looked up, the tested form may be a part): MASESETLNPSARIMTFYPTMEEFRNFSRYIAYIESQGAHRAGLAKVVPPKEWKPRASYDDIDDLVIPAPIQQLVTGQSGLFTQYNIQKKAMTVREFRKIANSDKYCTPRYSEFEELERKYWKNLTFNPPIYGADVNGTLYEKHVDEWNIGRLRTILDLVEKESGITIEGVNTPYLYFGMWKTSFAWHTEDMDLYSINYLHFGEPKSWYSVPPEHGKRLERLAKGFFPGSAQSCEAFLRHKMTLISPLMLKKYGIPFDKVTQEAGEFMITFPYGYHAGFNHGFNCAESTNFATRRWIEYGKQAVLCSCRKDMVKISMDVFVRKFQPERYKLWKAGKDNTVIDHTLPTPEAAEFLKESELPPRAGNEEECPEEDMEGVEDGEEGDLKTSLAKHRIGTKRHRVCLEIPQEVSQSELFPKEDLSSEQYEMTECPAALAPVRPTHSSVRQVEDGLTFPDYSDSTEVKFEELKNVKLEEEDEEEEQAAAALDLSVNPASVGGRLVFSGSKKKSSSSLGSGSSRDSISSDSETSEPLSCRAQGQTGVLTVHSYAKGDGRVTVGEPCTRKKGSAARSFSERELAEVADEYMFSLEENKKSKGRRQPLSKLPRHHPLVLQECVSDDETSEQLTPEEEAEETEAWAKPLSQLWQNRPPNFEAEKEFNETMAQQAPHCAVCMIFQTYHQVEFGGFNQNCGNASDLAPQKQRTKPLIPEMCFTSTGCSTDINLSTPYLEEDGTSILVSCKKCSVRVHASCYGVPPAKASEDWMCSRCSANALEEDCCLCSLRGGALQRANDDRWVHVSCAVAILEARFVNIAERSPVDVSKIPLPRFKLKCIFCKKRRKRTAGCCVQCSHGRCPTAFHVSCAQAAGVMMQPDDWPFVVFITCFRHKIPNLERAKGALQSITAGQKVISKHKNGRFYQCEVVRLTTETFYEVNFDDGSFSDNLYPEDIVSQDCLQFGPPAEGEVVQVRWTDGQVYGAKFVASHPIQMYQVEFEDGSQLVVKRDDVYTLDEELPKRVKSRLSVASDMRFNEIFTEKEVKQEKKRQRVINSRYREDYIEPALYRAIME
Potency is read from the fitted curve at half-maximal effect; tags tell the direction and shape of the fitted curve.

Potency, inconclusive:
O=C(NCc1ccncc1)C1CCCCC1 39.8 µM [inhibitor, single point]
CSc1ccc(CCNC(=O)C(C)n2c(C)c3cnn(-c4ccccc4)c(=O)c3c2C)cc1 (centres undefined) 56.2 µM [inhibitor, partial curve]
CSCCC(Nc1ncnc2ccc(Br)cc12)C(=O)O (centres undefined) 89.1 µM [inhibitor, single point]
O=[N+]([O-])c1ccc2ncnc(N3CCN(Cc4ccc5c(c4)OCO5)CC3)c2c1 50.1 µM [inhibitor, partial curve]
COc1ccc(NCc2cc3ccccc3[nH]c2=O)cc1 56.2 µM [inhibitor, partial curve]
COCCNCC(=O)N1c2ccccc2Sc2ccccc21 39.8 µM [inhibitor, single point]
CC(=O)Oc1c(Br)cc(N(C(C)=O)S(=O)(=O)c2ccccc2)c2ccccc12 56.2 µM [inhibitor, partial curve]
Cc1cc(O)cc2c1C(=O)/C(=C/c1ccco1)O2 89.1 µM [inhibitor, partial curve]
CCc1sc(C(=O)Nc2ccc3c(c2)OCO3)cc1C 44.7 µM [inhibitor, partial curve]
O=C(CC1C[C@H](C(=O)N2CCCCC2)[C@@]2(CCc3ccccc3)c3[nH]c4ccccc4c3CCN2C1=O)NCCc1ccccn1 (some centres undefined) 44.7 µM [inhibitor, partial curve]
COc1ccc(C(=O)N/N=C(\c2ccccc2)c2ccccn2)cc1 56.2 µM [inhibitor, partial curve]
O=C1Nc2ccc(S(=O)(=O)N(CCO)CCO)c3cccc1c23 25.1 µM [inhibitor, partial curve]
CCN1CCN(c2nc3c(C)cccn3c(=O)c2/C=C(\C#N)S(=O)(=O)c2ccc(Cl)cc2)CC1 56.2 µM [inhibitor, partial curve]
Cc1ccc(S(=O)(=O)N/N=C/c2cc([N+](=O)[O-])ccc2O)cc1[N+](=O)[O-] 44.7 µM [inhibitor, partial curve]
CCn1cc(C(=O)O)c(=O)c2cc(F)c(N3CCN(C(=S)NC(=O)c4c(OC)cccc4OC)CC3)cc21 79.4 µM [inhibitor, partial curve]
COc1ccc(OCC(=O)NNC(=O)C(=O)Nc2ccc(C)cc2)cc1 56.2 µM [inhibitor, single point]
O=C(COC(=O)c1ccccn1)Nc1ncc(C(F)(F)F)cc1Cl 50.1 µM [inhibitor, partial curve]
O=C(c1ccco1)N1CCN(CCCCOc2cccc3ccccc23)CC1 70.8 µM [inhibitor, single point]
CCCC(=O)Nc1ccc(Cl)c(NC(=S)NC(=O)c2cc3ccccc3o2)c1 35.5 µM [inhibitor, partial curve]
O=C(CSc1nnc(COc2ccc(Cl)cc2)o1)N1CCN(c2ccccc2)CC1 25.1 µM [inhibitor, full curve]
NC(=O)c1c(NC(=O)CSc2nnc(Cc3ccccc3)n2Cc2ccco2)sc2c1CCC2 39.8 µM [inhibitor, partial curve]
COc1ccc(CNC(=O)C[C@H]2C[C@H](C(=O)N3CCOCC3)[C@@]3(CCC4CCCC4)c4[nH]c5cc(-c6ccco6)ccc5c4CCN3C2=O)cc1OC 17.8 µM [inhibitor, full curve]
COCc1nnc(NS(=O)(=O)c2ccc([N+](=O)[O-])cc2)s1 79.4 µM [inhibitor, partial curve]
CCCCC1(C)OC(=O)C(=Cc2ccc(N(CC)CC)cc2)C(=O)O1 (centres undefined) 17.8 µM [inhibitor, full curve, poor fit]
CCOc1ccc2c(c1)sc(N)[n+]2Cc1cc(C)cc2cccnc12 25.1 µM [inhibitor, full curve, poor fit]

Potency, active:
O=C(CCN1CCCCCC1)Nc1ccc2c(c1)OCCO2 5.01 µM
O=C(CSc1nnc(C2CCCCC2)n1Cc1ccccc1)NCc1ccco1 28.2 µM
N=c1c2c(-c3ccccc3)c(-c3ccccc3)n(Cc3ccco3)c2ncn1Cc1ccco1 50.1 µM
c1ccc(OCc2nnc3sc(C4COc5ccccc5O4)nn23)cc1 (centres undefined) 50.1 µM
O=C(NCc1ccccc1)C(c1ccncc1)N(C(=O)c1ccccn1)c1ccccc1 (centres undefined) 25.1 µM
O=[N+]([O-])c1ccc(Cl)c(/C=N/N2CCN(c3ccccc3)CC2)c1 10 µM
Cc1cc(C(=O)NNC(=S)NC(=O)/C=C/c2ccccc2Cl)n[nH]1 50.1 µM
Cn1c2ccccc2c2cc(/C=N/NC(=O)c3cc(O)ccc3O)ccc21 31.6 µM

Potency, inactive:
COc1ccccc1N1CCN(C(=O)c2oc3ccc(F)cc3c2C)CC1
CC1(C2CC2)NC(=O)N(CC(=O)N2CCN(c3cccc(C(F)(F)F)c3)CC2)C1=O (centres undefined)
O=C(Nc1cccs1)Nc1ccccc1Cl
CCS(=O)(=O)NCC(c1ccco1)N1CCN(c2ccc(OC)cc2)CC1 (centres undefined)
Cc1ccc(S(=O)(=O)/N=C2/NC(=O)/C(=C/c3cc([N+](=O)[O-])ccc3O)S2)cc1
O=c1c2ccccc2ncn1Cc1cccc2ccccc12
COc1cccc(CNC(=O)C(NS(=O)(=O)c2ccc3nc(C)sc3c2)C(C)C)c1 (centres undefined)
COC(=O)c1ccc(NC(=O)CN2CCC(NC(=O)c3ccco3)CC2)cc1
N#C/C(=C/c1cn(-c2ccccc2)nc1-c1cccc(S(=O)(=O)N2CCOCC2)c1)C(=O)NCc1ccco1
CN(C)CCn1c(=N)n(CC(O)c2ccc(Cl)c(Cl)c2)c2ccccc21 (centres undefined)
Cc1cccc(C(=O)OCCN2CCOCC2)c1
